{"source": "the supplement of paper PMC8728848", "experiment_in_all_cases": "glycan array binding signal (z-score within array); higher = stronger binding", "conditions_in_all_cases": "glycan notation: IUPAC condensed, linker removed", "key": {"[1]": {"biological_target": "Fuc(a1-2)[Gal(a1-3)]Gal(b1-4)GlcNAc(b1-2)Man(a1-3)[Fuc(a1-2)[Gal(a1-3)]Gal(b1-4)GlcNAc(b1-2)Man(a1-6)]Man(b1-4)GlcNAc(b1-4)[Fuc(a1-6)]GlcNAc", "method_in_brief": "(§1)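 Columns mapping to the same glycan were averaged after glycan names were converted to IUPAC-condensed notation. The data come from 3228 arrays in the Consortium for Functional Glycomics database, limited to those with an available protein sequence. Binding is reported as a within-array Z-score averaged across arrays of one protein sequence and across linkers.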"}, "[2]": {"biological_target": "Fuc(a1-2)[Gal(a1-3)]Gal(b1-4)GlcNAc(b1-3)GalNAc", "method_in_brief": "as §1"}, "[3]": {"biological_target": "Fuc(a1-2)[Gal(a1-3)]Gal(b1-4)GlcNAc(b1-3)[Fuc(a1-2)[Gal(a1-3)]Gal(b1-4)GlcNAc(b1-6)]GalNAc", "method_in_brief": "as §1"}, "[4]": {"biological_target": "Fuc(a1-2)[Gal(a1-3)]Gal(b1-4)GlcNAc(b1-6)GalNAc", "method_in_brief": "as §1"}, "[5]": {"biological_target": "Fuc(a1-2)[Gal(a1-3)]Gal(b1-4)[Fuc(a1-3)]Glc", "method_in_brief": "as §1"}, "[6]": {"biological_target": "Fuc(a1-2)[Gal(a1-3)]Gal(b1-4)[Fuc(a1-3)]GlcNAc", "method_in_brief": "as §1"}, "[7]": {"biological_target": "Fuc(a1-2)[Gal(a1-3)]Gal(b1-4)[Fuc(a1-3)]GlcNAc(b1-3)GalNAc", "method_in_brief": "as §1"}, "[8]": {"biological_target": "Fuc(a1-2)[Gal(a1-4)]Gal(b1-4)GlcNAc", "method_in_brief": "as §1"}, "[9]": {"biological_target": "Fuc(a1-2)[GalNAc(a1-3)]Gal", "method_in_brief": "as §1"}, "[10]": {"biological_target": "Fuc(a1-2)[GalNAc(a1-3)]Gal(b1-3)GalNAc(a1-3)[Fuc(a1-2)]Gal(b1-4)GlcNAc", "method_in_brief": "as §1"}, "[11]": {"biological_target": "Fuc(a1-2)[GalNAc(a1-3)]Gal(b1-3)GalNAc(b1-3)Gal(a1-4)Gal(b1-4)Glc", "method_in_brief": "as §1"}, "[12]": {"biological_target": "Fuc(a1-2)[GalNAc(a1-3)]Gal(b1-3)GlcNAc", "method_in_brief": "as §1"}, "[13]": {"biological_target": "Fuc(a1-2)[GalNAc(a1-3)]Gal(b1-3)GlcNAc(b1-2)Man(a1-3)[Fuc(a1-2)[GalNAc(a1-3)]Gal(b1-3)GlcNAc(b1-2)Man(a1-6)]Man(b1-4)GlcNAc(b1-4)GlcNAc", "method_in_brief": "as §1"}, "[14]": {"biological_target": "Fuc(a1-2)[GalNAc(a1-3)]Gal(b1-3)GlcNAc(b1-2)Man(a1-3)[Fuc(a1-2)[GalNAc(a1-3)]Gal(b1-3)GlcNAc(b1-2)Man(a1-6)]Man(b1-4)GlcNAc(b1-4)[Fuc(a1-6)]GlcNAc", "method_in_brief": "as §1"}, "[15]": {"biological_target": "Fuc(a1-2)[GalNAc(a1-3)]Gal(b1-3)GlcNAc(b1-3)GalNAc", "method_in_brief": "as §1"}, "[16]": {"biological_target": "Fuc(a1-2)[GalNAc(a1-3)]Gal(b1-3)GlcNAc(b1-6)GalNAc", "method_in_brief": "as §1"}, "[17]": {"biological_target": "Fuc(a1-2)[GalNAc(a1-3)]Gal(b1-4)Glc", "method_in_brief": "as §1"}, "[18]": {"biological_target": "Fuc(a1-2)[GalNAc(a1-3)]Gal(b1-4)GlcNAc", "method_in_brief": "as §1"}, "[19]": {"biological_target": "Fuc(a1-2)[GalNAc(a1-3)]Gal(b1-4)GlcNAc(b1-2)Man", "method_in_brief": "as §1"}, "[20]": {"biological_target": "Fuc(a1-2)[GalNAc(a1-3)]Gal(b1-4)GlcNAc(b1-2)Man(a1-3)[Fuc(a1-2)[GalNAc(a1-3)]Gal(b1-4)GlcNAc(b1-2)Man(a1-6)]Man(b1-4)GlcNAc(b1-4)GlcNAc", "method_in_brief": "as §1"}, "[21]": {"biological_target": "Fuc(a1-2)[GalNAc(a1-3)]Gal(b1-4)GlcNAc(b1-2)Man(a1-3)[Fuc(a1-2)[GalNAc(a1-3)]Gal(b1-4)GlcNAc(b1-2)Man(a1-6)]Man(b1-4)GlcNAc(b1-4)[Fuc(a1-6)]GlcNAc", "method_in_brief": "as §1"}, "[22]": {"biological_target": "Fuc(a1-2)[GalNAc(a1-3)]Gal(b1-4)GlcNAc(b1-3)Gal(b1-4)GlcNAc", "method_in_brief": "as §1"}, "[23]": {"biological_target": "Fuc(a1-2)[GalNAc(a1-3)]Gal(b1-4)GlcNAc(b1-3)Gal(b1-4)GlcNAc(b1-3)Gal(b1-4)GlcNAc", "method_in_brief": "as §1"}, "[24]": {"biological_target": "Fuc(a1-2)[GalNAc(a1-3)]Gal(b1-4)GlcNAc(b1-3)GalNAc", "method_in_brief": "as §1"}, "[25]": {"biological_target": "Fuc(a1-2)[GalNAc(a1-3)]Gal(b1-4)GlcNAc(b1-3)[Fuc(a1-2)[GalNAc(a1-3)]Gal(b1-4)GlcNAc(b1-6)]GalNAc", "method_in_brief": "as §1"}, "[26]": {"biological_target": "Fuc(a1-2)[GalNAc(a1-3)]Gal(b1-4)GlcNAc(b1-6)GalNAc", "method_in_brief": "as §1"}, "[27]": {"biological_target": "Fuc(a1-2)[GalNAc(a1-3)]Gal(b1-4)[Fuc(a1-3)]GlcNAc", "method_in_brief": "as §1"}, "[28]": {"biological_target": "Fuc(a1-2)[GalNAc(a1-3)]Gal(b1-4)[Fuc(a1-3)]GlcNAc(b1-3)GalNAc", "method_in_brief": "as §1"}, "[29]": {"biological_target": "Fuc(a1-2)[GalNAc(a1-4)]Gal(b1-4)GlcNAc", "method_in_brief": "as §1"}, "[30]": {"biological_target": "Fuc(a1-2)[GalNAc(b1-3)]Gal", "method_in_brief": "as §1"}}, "note": "The list shows a part of the results."}
{"binder": "SialidaseA (Arthrobacter ureafaciens) (protein) MRSNSTSAPSLVRRAATGVLTCAVSIGLLAGLGLPAQAAPTPPNSPTLPPGSFSETNLAADRTAANFFYRIPALTYLGNDVVLAAWDGRPGSAADAPNPNSIVQRRSTDGGKTWGPVQVIAAGHVADASGPRYGYSDPSYIYDAEANKVFAFFVYSKDQGFGGSQFGNDDADRNVISSAVIESSDAGVTWSQPRLITSVTKPGTSKTNPAAGDVRSNFASSGEGIQLKYGPHKGRLIQQYAGDVRQADGSNKIQAYSVYSDDHGVTWHKGANVGDRMDENKTVELSDGRVLLNSRDNANRGYRKVAVSTDGGATYGPVSQDTELPDPANNGAIARMFPNAAQGSADAKKLIFTNANSKTGRENVSARVSCDDGETWPGVRTIRSGFSAYSTVTRLADGKFGVLYEGNYTDNMPFATFDDAWLNYVCAPLAVPAVNIAPSATQEVPVTVTNQEATTLSGATATVYTPSGWSATTVPVPDVAPGASVTVTVALTAPADASGPRSLNAAFTTADGRVSQFTFTATTPVAPQVGLTITGSAPARDVAANPYQAGDVLGYTLNVKSTANVAANSVPLTGTFDSGFLPPAAPNCRYNNLAAGASYNCTTAKHTITAADMERGYFVPEATFSITSTTTPSLTKTVQFTGAAVALRDGLISADISGARTDVGRDLATRPYAAGELVPYAFTVKNTSPFVEQVVPTAGNFSPFLPAGAGNCRYLSLPAGQSYECATPRHAVTAEEVEQGFFVPDTTWEVSAAGQSTRTYRINGGEVDLLVRDAALSATVVAEWKDADGDRFASAGDPVTFTYTVGNAGNVALTGLEAPDAGISLPFLAPGDTATATREHVLTAADVAGGSLAASAFEATARNGSKEVTATAEGQPLELKVQPAQPSKEPELTVQDLEDQTPPFDLGTAFKYRTGQKVSLAGLEYGQWYYVYLNKTGYRLGWMFPTTGDTVEFILPPEVRNGRDDVVVLDKDGRRVSFDRLQVTPKGEKI", "values": [{"measurement": "glycan array binding signal (z-score)", "setting": "[1]", "value": -0.487}, {"measurement": "glycan array binding signal (z-score)", "setting": "[2]", "value": -0.517}, {"measurement": "glycan array binding signal (z-score)", "setting": "[3]", "value": -0.253}, {"measurement": "glycan array binding signal (z-score)", "setting": "[4]", "value": -0.849}, {"measurement": "glycan array binding signal (z-score)", "setting": "[5]", "value": -0.841}, {"measurement": "glycan array binding signal (z-score)", "setting": "[6]", "value": -0.387}, {"measurement": "glycan array binding signal (z-score)", "setting": "[7]", "value": -0.31}, {"measurement": "glycan array binding signal (z-score)", "setting": "[8]", "value": 0.016}, {"measurement": "glycan array binding signal (z-score)", "setting": "[9]", "value": -0.307}, {"measurement": "glycan array binding signal (z-score)", "setting": "[10]", "value": -0.42}, {"measurement": "glycan array binding signal (z-score)", "setting": "[11]", "value": -0.538}, {"measurement": "glycan array binding signal (z-score)", "setting": "[12]", "value": -0.376}, {"measurement": "glycan array binding signal (z-score)", "setting": "[13]", "value": -0.386}, {"measurement": "glycan array binding signal (z-score)", "setting": "[14]", "value": -0.683}, {"measurement": "glycan array binding signal (z-score)", "setting": "[15]", "value": -0.124}, {"measurement": "glycan array binding signal (z-score)", "setting": "[16]", "value": -0.737}, {"measurement": "glycan array binding signal (z-score)", "setting": "[17]", "value": -0.498}, {"measurement": "glycan array binding signal (z-score)", "setting": "[18]", "value": -0.821}, {"measurement": "glycan array binding signal (z-score)", "setting": "[19]", "value": -0.707}, {"measurement": "glycan array binding signal (z-score)", "setting": "[20]", "value": -0.021}, {"measurement": "glycan array binding signal (z-score)", "setting": "[21]", "value": -0.451}, {"measurement": "glycan array binding signal (z-score)", "setting": "[22]", "value": -0.432}, {"measurement": "glycan array binding signal (z-score)", "setting": "[23]", "value": -0.168}, {"measurement": "glycan array binding signal (z-score)", "setting": "[24]", "value": -0.801}, {"measurement": "glycan array binding signal (z-score)", "setting": "[25]", "value": -0.516}, {"measurement": "glycan array binding signal (z-score)", "setting": "[26]", "value": -0.733}, {"measurement": "glycan array binding signal (z-score)", "setting": "[27]", "value": -0.364}, {"measurement": "glycan array binding signal (z-score)", "setting": "[28]", "value": -0.145}, {"measurement": "glycan array binding signal (z-score)", "setting": "[29]", "value": -0.14}, {"measurement": "glycan array binding signal (z-score)", "setting": "[30]", "value": -0.317}]}
